Experimental data published in PubChem BioAssay AID624417 (National Center for Advancing Translational Sciences (NCATS), 2012).
The campaign covered roughly 410,000 compounds. About 6,400 (1.6%) were called active. This list was built around the results that the source calls inconclusive (neither active nor inactive); the mix of calls is not that of the screen. The call rests on the fitted dose curve; in most records, active means well fitted inhibition curve with a large enough effect; inconclusive means small, poorly fitted or top-dose-only effect; inactive means no such curve, though single readings can be large or run the other way. Potencies of inconclusive entries are left out as doubtful fits.
Further: nearly all actives have a fitted effect of over 55% in size.
Potency means the concentration at half of the fitted maximal effect; tags describe the fitted curve by direction and shape.

What follows are compounds tested against Glucagon-like peptide 1 receptor (Homo sapiens) (UniProt P43220) (assay: qHTS of GLP-1 Receptor Inverse Agonists (Inhibition Mode)). Conditions: HEK293 GLP-1R CRE-luciferase, luminescence, 24 h, GLP-1R form is constitutively active; series mostly up to 38.3 µM.
Chain of UniProt P43220 (P43220 whole entry, looked up): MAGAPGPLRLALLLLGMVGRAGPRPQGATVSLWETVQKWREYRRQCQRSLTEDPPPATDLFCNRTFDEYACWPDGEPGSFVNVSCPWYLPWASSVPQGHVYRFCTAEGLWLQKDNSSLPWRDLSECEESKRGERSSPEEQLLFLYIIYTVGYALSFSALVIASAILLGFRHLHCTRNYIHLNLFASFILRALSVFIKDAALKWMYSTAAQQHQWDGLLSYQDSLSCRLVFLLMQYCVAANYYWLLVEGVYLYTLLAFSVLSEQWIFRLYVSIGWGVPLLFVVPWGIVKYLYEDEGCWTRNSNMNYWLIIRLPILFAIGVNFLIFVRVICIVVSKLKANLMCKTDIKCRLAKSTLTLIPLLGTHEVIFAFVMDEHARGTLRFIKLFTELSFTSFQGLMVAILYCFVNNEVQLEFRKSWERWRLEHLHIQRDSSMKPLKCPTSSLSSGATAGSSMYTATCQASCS
Summary of the method: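 Stable HEK293 clone (constitutively active GLP-1R + cAMP-response luciferase); 200 cells/uL plated, 12 h pre-culture, compound 24 hr, 37 deg C/5% CO2; detection reagent 12 min RT; luminescence.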
In the case of `Cc1cc(-c2ccccc2)n(-c2ccc(C(=O)N3CCN(c4ncccn4)CC3)cc2)n1`, the Potency is reported as inconclusive [inhibitor, single point].
With `CSc1ccc(CN2CCC(n3nccc3NC(=O)CCCc3ccccc3)CC2)cc1` the Potency was inconclusive [inhibitor, single point].
In the case of `Cc1cc(C)c(CN2CCC(n3nccc3NC(=O)c3ccccc3Cl)CC2)cc1C`, the Potency is reported as inconclusive [inhibitor, partial curve, poor fit].
In the case of `Cn1nc([N+](=O)[O-])c(C(C#N)c2nc3ccccc3n2C)c(Cl)c1=O` (stereo unspecified), the Potency is reported as inconclusive [inhibitor, single point].
In the case of `O=C(O)C1CC(=O)N(CCc2ccc(F)cc2)C1` (stereo unspecified), the Potency is reported as “inactive”.
`COc1ccccc1-n1cnnc1SCC(=O)Nc1cc(C(C)(C)C)nn1-c1ccccc1` was tested, and the Potency was inconclusive [inhibitor, single point].
`CCc1ccccc1NC(=O)c1cc(S(=O)(=O)N(CC)c2ccccc2)ccc1F` was tested, and the Potency was active: 11.2 µM.
`CCN1CCN(CCCN(Cc2ccco2)C(=S)Nc2cc(Cl)ccc2C)CC1` was tested, and the Potency was inconclusive [inhibitor, single point].
With `CC(C)(O)c1[nH]c2cc(F)ccc2c1C(C)(C)O` the Potency was inconclusive [inhibitor, partial curve, poor fit].
`Oc1c(I)cc(I)c2cccnc12` was tested, and the Potency was “inactive”.
For `O=C(NCC(=O)N1CCN(C/C=C/c2ccccc2)CC1)c1ccc(Br)cc1`, the Potency was inconclusive [inhibitor, partial curve, poor fit].
With `CCS(=O)(=O)Nc1cccc(-c2cc(-c3ccccc3)c3cc(C)ccc3n2)c1` the Potency was inconclusive [inhibitor, single point].
With `CC[C@@]12C(=O)N(c3ccc(C)cc3)C(=O)N1[C@H](c1ccc(Br)cc1)[C@@H]1C(=O)N(C(C)(C)C)C(=O)[C@@H]12` the Potency was inconclusive [inhibitor, single point].
With `CC1(C)Cc2ccccc2/C(=C/C(=O)c2ccccc2)N1` the Potency was inconclusive [inhibitor, partial curve, poor fit].
In the case of `Cc1ccccc1CSc1ccc(S(=O)(=O)N2CCCC2)cn1`, the Potency is reported as inconclusive [inhibitor, single point].
With `CCCC(=O)N1CCCC(c2cc(C(=O)Nc3ccccc3)no2)C1` (stereo unspecified) the Potency was inconclusive [inhibitor, full curve, poor fit].
For `CCOC(=O)c1sc2ccccc2c1S(=O)(=O)Nc1ccc(N(C)C)cc1`, the Potency was inconclusive [inhibitor, single point].
`Cc1ccc(-c2csc(NC(=O)CCNC(=O)c3ccco3)n2)cc1` was tested, and the Potency was inconclusive [inhibitor, single point].
`C=CS(=O)(=O)c1sc(Cl)c(N2CCOCC2)c1[N+](=O)[O-]` was tested, and the Potency was inconclusive [inhibitor, single point].
In the case of `O=C(N/N=C/c1ccc(O)cc1)c1csc2ccccc12`, the Potency is reported as inconclusive [inhibitor, full curve].
For `Cc1cc(Cl)c(OCCCSc2nc(C)cc(=O)[nH]2)c(Br)c1`, the Potency was “inactive”.
With `O=C(NC1=NCCS1)c1ccc(-c2ccc(Cl)cc2)o1` the Potency was inconclusive [inhibitor, single point].
With `Cc1ccc(NC(=O)C(C)c2ccc([N+](=O)[O-])cc2)cc1Cl` (stereo unspecified) the Potency was inconclusive [inhibitor, partial curve, poor fit].
For `NC(=O)C1CCCc2c1n(Cc1ccccc1)c1ccccc21` (stereo unspecified), the Potency was inconclusive [inhibitor, partial curve, poor fit].
For `CCCCCN(C(=O)CCC(=O)OCC(=O)Nc1cccc(CC)c1)c1c(N)n(CCCC)c(=O)[nH]c1=O`, the Potency was inconclusive [inhibitor, partial curve, poor fit].
With `COc1ccccc1CCNC(=O)c1ccc2c(c1)c(C)c(C)n2C` the Potency was inconclusive [inhibitor, single point].
In the case of `CCc1ccc(NCc2cc3cc4c(cc3n(CC(=O)Nc3ccc(Cl)cc3)c2=O)OCO4)cc1`, the Potency is reported as “inactive”.
`COC(=O)[C@@]1(Cc2ccc(F)cc2)[C@H]2c3cc(C(=O)N4CCCC4)n(CCSCCO)c3C[C@H]2CN1C(=O)c1ccccc1` was tested, and the Potency was inconclusive [inhibitor, partial curve, poor fit].
`COC(=O)c1ccc(NC(=O)CC2C(=O)N(c3ccc(Cl)cc3)C(=O)N2Cc2cccs2)cc1` (stereo unspecified) was tested, and the Potency was inconclusive [inhibitor, single point].
With `CCOc1ccc(NC(=O)c2sc3nc(C)nc(N4CCOCC4)c3c2C)cc1` the Potency was inconclusive [inhibitor, single point].
For `Oc1cccc(Oc2ncc(C(F)(F)F)cc2Cl)c1`, the Potency was inconclusive [inhibitor, single point].
In the case of `COc1cc(NC(=S)NC(=O)c2ccc(C(C)(C)C)cc2)ccc1NC(=O)c1cccs1`, the Potency is reported as inconclusive [inhibitor, full curve, poor fit].
With `O=C(COC(=O)c1n[nH]c2ccccc12)c1ccc(F)c(F)c1` the Potency was inconclusive [inhibitor, single point].
With `COc1ccc2cc(C(=O)N(C)CC(=O)Nc3ccccc3Br)ccc2c1` the Potency was inconclusive [inhibitor, partial curve, poor fit].
`Cc1sc2nc(C)n(/N=C/c3ccccc3O)c(=O)c2c1C` was tested, and the Potency was “inactive”.
With `O=C1CCN(Cc2ccccc2)CCN1[C@H](CSc1ccccc1)Cc1ccccc1` the Potency was inconclusive [inhibitor, single point].
In the case of `COc1ccccc1-c1cc(C(F)(F)F)nc(S(=O)(=O)CCCC(=O)N2CCCCC2C)n1` (stereo unspecified), the Potency is reported as inconclusive [inhibitor, single point].
With `CCN(CC)S(=O)(=O)c1ccc(Cl)c(NC(=O)COC(=O)c2ccc(O)cc2)c1` the Potency was inconclusive [inhibitor, full curve, poor fit].
In the case of `C=CCC[C@@H](Cc1ccc(F)cc1)C(=O)OC[C@H](Cc1c[nH]c2ccccc12)NC(=O)[C@H](CC=C)CC(=O)NCCO`, the Potency is reported as inconclusive [inhibitor, single point].
For `Cc1nc(SCC(=O)c2ccc(F)cc2)c([N+](=O)[O-])[nH]1`, the Potency was “inactive”.
With `O=C1CCCCCCCN1Cc1ccccc1` the Potency was inconclusive [inhibitor, partial curve, poor fit].
For `Cc1ccccc1NC(=S)NCc1ccc2[nH]c3c(c2c1)CCCC3`, the Potency was inconclusive [inhibitor, partial curve, poor fit].
With `CCc1ccc(-c2cnc3ccccc3n2)cc1NC(=O)CNC(=O)c1ccccc1` the Potency was “inactive”.
With `Cc1cc(C)cc(OCC(=O)NCC(c2ccc(Cl)cc2)N2CCCCC2)c1` (stereo unspecified) the Potency was inconclusive [inhibitor, single point].
In the case of `O=C(Nc1ccc2c(c1)CCC2)c1cccc(S(=O)(=O)N2CCN(c3ccc(F)cc3)CC2)c1`, the Potency is reported as inconclusive [inhibitor, full curve, poor fit].
`CC1CCc2c(sc3nnn(Cc4ccc(F)cc4)c(=O)c23)C1` (stereo unspecified) was tested, and the Potency was inconclusive [inhibitor, partial curve, poor fit].
For `Cc1ccccc1C(=O)Nc1nnc(-c2ccc(F)cc2)o1`, the Potency was inconclusive [inhibitor, partial curve, poor fit].
With `COc1cc(C(=O)NCC2CCCO2)ccc1OCc1ccccc1Cl` (stereo unspecified) the Potency was inconclusive [inhibitor, single point].
In the case of `O=C(NCCO)c1cccc(-c2cccc3nccn23)c1`, the Potency is reported as “inactive”.
In the case of `COc1cccc(CNC(=O)CCCCCNC(=O)N2CCn3c2nc2ccccc23)c1`, the Potency is reported as inconclusive [inhibitor, partial curve, poor fit].
In the case of `O=C1/C(=C/c2ccccc2)NC(=S)N1C(c1ccccc1)c1ccccc1`, the Potency is reported as inconclusive [inhibitor, partial curve, poor fit].
`O=C(C=Cc1ccccc1Cl)c1ccccc1` was tested, and the Potency was inconclusive [inhibitor, single point].
For `COc1ccc(CN(Cc2cccn2C)S(=O)(=O)c2cccc(C(F)(F)F)c2)cc1`, the Potency was inconclusive [inhibitor, single point].
`Cc1cc(C(=O)N2CCN(c3ccccc3Cl)CC2)c(C)o1` was tested, and the Potency was inconclusive [inhibitor, single point].
In the case of `CC1(C)Cc2c(C#N)c(SCCO)nc(N3CCOCC3)c2CO1`, the Potency is reported as “inactive”.
In the case of `CCCCn1nnnc1C(C1CC1)N1CCN(C/C=C/c2ccccc2)CC1` (stereo unspecified), the Potency is reported as inconclusive [inhibitor, partial curve, poor fit].
With `COc1ccccc1C(=O)N(C1=NC(C)CS1)c1ccc(Cl)cc1` (stereo unspecified) the Potency was inconclusive [inhibitor, partial curve, poor fit].
With `O=C(CN1CCN(CCOCCO)CC1)N1c2ccccc2Sc2ccc(Cl)cc21` the Potency was inconclusive [inhibitor, partial curve, poor fit].
For `CCOC(=O)N1CCC(N(CCN(C)C)C(=S)Nc2cccc(Cl)c2C)CC1`, the Potency was inconclusive [inhibitor, partial curve, poor fit].
With `CC(C)c1ccc(NC2CCCN(C(=O)CN3C(=O)CSC3=O)C2)cc1` (stereo unspecified) the Potency was inconclusive [inhibitor, partial curve, poor fit].
In the case of `CCOC(=O)C1(CCCc2ccccc2)CCN(S(C)(=O)=O)CC1`, the Potency is reported as inconclusive [inhibitor, partial curve, poor fit].
